# Results: the supplement of paper PMC3334620
# In all, about 33,000 sequences were measured (“E-score (-0.5 to 0.5)”: median about -0.021, highest 2% from about 0.32 on). The list shows a part of the results.
# Target: T1, Zap1 (UniProt P47043)
# T1 sequence: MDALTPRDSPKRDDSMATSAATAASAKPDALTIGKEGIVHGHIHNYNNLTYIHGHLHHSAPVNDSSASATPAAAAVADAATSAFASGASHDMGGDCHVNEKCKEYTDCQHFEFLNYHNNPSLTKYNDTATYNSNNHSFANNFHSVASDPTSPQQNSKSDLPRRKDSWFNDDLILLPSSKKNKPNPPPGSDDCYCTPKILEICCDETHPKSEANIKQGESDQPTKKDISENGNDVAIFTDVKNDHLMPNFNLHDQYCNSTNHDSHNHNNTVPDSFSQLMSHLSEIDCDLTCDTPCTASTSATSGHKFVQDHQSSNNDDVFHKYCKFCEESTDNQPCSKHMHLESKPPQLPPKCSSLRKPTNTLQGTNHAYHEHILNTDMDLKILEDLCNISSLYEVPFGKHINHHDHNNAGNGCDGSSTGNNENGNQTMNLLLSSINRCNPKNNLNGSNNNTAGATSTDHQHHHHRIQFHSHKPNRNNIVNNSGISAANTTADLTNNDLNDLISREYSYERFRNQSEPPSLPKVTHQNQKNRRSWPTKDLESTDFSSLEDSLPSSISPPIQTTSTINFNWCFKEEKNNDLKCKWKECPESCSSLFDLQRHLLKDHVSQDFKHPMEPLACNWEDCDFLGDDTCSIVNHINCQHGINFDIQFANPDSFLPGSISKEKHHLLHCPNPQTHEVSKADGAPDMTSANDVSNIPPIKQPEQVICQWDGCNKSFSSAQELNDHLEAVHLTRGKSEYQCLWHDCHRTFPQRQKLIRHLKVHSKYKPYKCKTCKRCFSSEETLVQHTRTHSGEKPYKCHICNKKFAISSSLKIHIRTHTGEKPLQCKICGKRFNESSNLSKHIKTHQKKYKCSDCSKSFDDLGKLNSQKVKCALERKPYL
# Experiment: PBM E-score (8-mer binding enrichment) (E-score (-0.5 to 0.5)); higher = stronger / more preferred TF binding; most listed sequences are background and not binding sites
# Conditions: protein concentration: 200 nM; construct: GST-full length
# Method in brief: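 GST-tagged yeast TFs (full-length or DNA-binding domain) were made by PURExpress in vitro transcription/translation and applied at about 100-200 nM to universal all-10-mer Agilent arrays. The arrays were made double-stranded by primer extension, on fresh or once-stripped slides. Bound protein was detected with fluorescent anti-GST, and scans were normalised with masliner. Each ungapped eight-base word, pooled with its reverse complement, received an E-score (modified Wilcoxon-Mann-Whitney statistic) from the Universal PBM Analysis Suite.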
row,Sequence,PBM E-score
1,GCCAAACC,0.00737
2,ATCCTATC,-0.0869
3,GTGAGACA,-0.0104
4,AGTCCTTC,-0.331
5,ATAGGAAA,0.077
6,CGATGCCG,-0.11
7,CCCATCCA,-0.00181
8,CAAAGCAA,0.148
9,CGAGCGGC,-0.0829
10,GCCGGCCA,-0.0187
11,ACTCAACC,0.153
12,AATTCCGG,0.0635
13,AGTCAGTC,-0.271
14,GAGCTAAC,0.0901
15,ACCCCAAT,0.211
16,CTAGGACC,0.0113
17,AGTAGAGA,-0.131
18,CCCGCGTA,0.00687
19,TACCGGAA,0.178
20,CTCGGTAC,-0.0929
21,CCCGACAA,0.132
22,GCGCTCAC,-0.198
23,ACAATGGG,-0.0216

row,Sequence,PBM E-score
1,CGTCTGTA,-0.0155
2,AGTATAAA,0.306
3,GAGCGGGC,-0.271
4,ATGGGCAC,0.0961
5,AGGATGAA,-0.1
6,AGACAATC,-0.107
7,AAAGCTCA,-0.116
8,AGTCCCGG,-0.15
9,GAAACCCA,0.246
10,CTTAACAA,0.112
11,TGAGACCA,-0.0352
12,ATCTGTTG,-0.124
13,GCGCTATA,-0.105
14,AGCTGCGG,-0.323
15,CACGTTAA,0.0562
16,ACAGATCG,-0.141
17,AAGCCTAG,-0.14
18,CTGCACGC,-0.159
19,ACAAGAAA,0.19
20,ACCAGGAC,0.14
21,AGGCGAGA,-0.172
22,AGAATGAG,-0.192
23,CGTAGGAC,-0.0801

row,Sequence,PBM E-score
1,GACACAAA,0.192
2,CCTTTCTA,0.121
3,CGGAATCC,-0.133
4,CTCGTGCA,-0.00737
5,AATCCATA,0.0606
6,CGCGATAC,0.0894
7,AGAATCAC,-0.168
8,CCACGTCG,-0.157
9,ACAACGGG,-0.0221
10,GCTTACTA,-0.0158
11,ACTCACCG,-0.0582
12,CGACTAGA,-0.132
13,CCAGGCTA,-0.255
14,CCGACGGA,-0.0612
15,GTAGGACA,0.134
16,CATTTGAC,0.0147
17,CTTGAGCA,-0.0146
18,ACGGCAAT,0.0376
19,CAGGCTCG,-0.172
20,GTCCCAAA,0.0529
21,CTAACTAC,0.0772
22,TCACGTGA,-0.169
23,GCGACTCA,-0.117

row,Sequence,PBM E-score
1,GAAAATTA,-0.071
2,GGAACAAA,0.111
3,ATCATACG,-0.0919
4,AAGGAACG,-0.0438
5,AACACCTG,-0.0293
6,ATACTGAA,-0.0762
7,AGCCGCCG,-0.13
8,ATACGAGC,0.0897
9,GTTCTGTA,0.206
10,CATACTGG,-0.142
11,ACTTCAGG,0.0219
12,AGAACATA,0.16
13,CAACGCCA,-0.0912
14,TTCCCAAA,0.0682
15,CATGCTGA,0.0171
16,CTTGACAC,-0.0234
17,ATCCGGCC,-0.0853
18,GCCCTATA,-0.144
19,TAAAAAGA,0.103
20,ACGTGCGC,-0.112
21,ACGACGAC,-0.219
22,GAACATCA,-0.0169
23,GCTCGTCC,-0.166

row,Sequence,PBM E-score
1,ATGTGTAA,0.0333
2,CAGTGCGC,-0.228
3,AGGCTATG,-0.208
4,CGTGATTA,0.151
5,CCAGGCGC,-0.179
6,GAGTTAAC,0.00603
7,ACCCCAGG,0.164
8,CTTAACGC,-0.0364
9,AACCAGCT,0.0824
10,AGTCAGAT,-0.193
11,CTGGAACC,0.0977
12,CGTTGACC,0.178
13,GAAGCATC,-0.258
14,CCAATGGA,-0.192
15,CAGCTGGC,-0.0978
16,GCTTATAA,0.106
17,ACCGCAGA,0.0711
18,TCTCGAGA,0.13
19,AGGTCTAT,0.0564
20,AGATCAAT,0.0157
21,CTATATGC,-0.045
22,CGACGCTA,-0.0971
23,AATTTGAA,0.0837

row,Sequence,PBM E-score
1,AGCCGAGG,0.0398
2,GATCTAGC,-0.101
3,CCGATAAG,-0.137
4,ACATGTTA,0.0859
5,CTAGTATC,0.0553
6,CATAAGCA,-0.0662
7,TAACACCA,0.0451
8,AACATACT,0.0307
9,AGCCTTAG,-0.0136
10,ACATTATG,-0.0663
11,AGGTGTGC,-0.087
12,GATTGAAA,0.0824
13,CCCGTGCA,-0.107
14,CCTCAGAG,0.034
15,ACGACAGT,-0.186
16,AATACTCA,0.0232
17,TACGCGCA,-0.0356
18,CGAACATC,0.0222
19,AGTCTGGC,-0.274
20,GTCCCAGA,-0.0513
21,AGTGGAGA,-0.0607
22,CTCACGAC,-0.141
23,CCCAAAAG,0.199

row,Sequence,PBM E-score
1,AAGGCTGG,-0.279
2,ATAGTGGC,-0.146
3,ATAGGGGG,-0.314
4,CTGGATCC,0.0142
5,AGAAGGCG,-0.28
6,GGGTGGGA,0.141
7,AATACGGT,0.192
8,GAACTCTC,-0.202
9,GATCCTTA,-0.0517
10,CACCAAAC,0.145
11,ACACGCAT,-0.0553
12,ATGCGCTG,-0.262
13,ATTACTTG,0.168
14,CCCGTGGA,-0.0527
15,CCCCCCAA,-0.371
16,GAGGAACA,0.0172
17,CCGCCGTA,-0.0131
18,GCGCCTAC,-0.202
19,CTGTGACC,0.269
20,AACCAGGA,0.153
